Results from PubChem BioAssay AID1479 (National Center for Advancing Translational Sciences (NCATS), 2009).
Among all 280,000 compounds or so, about 820 (0.29%) were called active. About 1% were inconclusive and are not listed. The call rests on the fitted dose curve; in most records, active means well fitted curve in either direction with a large enough effect; inconclusive means small, poorly fitted or top-dose-only effect; inactive means flat fitted curve, though single readings scatter. The entries are a selection whose mix differs from that of the whole data set. Some structures have more than one record in an assay (separate samples or runs), and their calls can disagree.

test: Total Fluorescence Counterscreen for Inhibitors of the Interaction of Thyroid Hormone Receptor and Steroid Receptor Coregulator 2; details: TRb/SRC2 Texas Red total fluorescence interference; series mostly up to 106 µM; fluorescence change, negative = quenching: at the top concentration
Description: NIH Molecular Libraries Probe Production Network [MLPCN]
NIH Chemical Genomics Center [NCGC]
Assay Provider: R. Kip Guy, St. Jude Children's Research Hospital
Thyroid receptor (TR) regulates many homeostatic processes including basal metabolism, cardiovascular function, body weight, and lipid trafficking. TR modulators are potential therapeutics for obesity and hyperlipidemias but current thyroid analogs have undesirable side effects, particularly cardiac stimulation. To identify inhibitors that specifically prevent the interaction of TR with the steroid receptor […] 2 (SRC2), a fluorescence polarization assay was screened. This assay detects interaction of the ligand-binding domain of human TRb with a Texas Red labeled SRC2 peptide, corresponding to a 20 amino acid region of the nuclear receptor interaction domain (Arnold et al., 2006). Total fluorescence (555 nm excitation and 632 nm emission) was measured to identify potential fluorescent and light absorbing compounds. Such compounds may be artifacts that interfere with the fluorescence polarization assay.
Arnold, L. A.; Estebanez-Perpina, E.; Togashi, M.; Shelat, A.; Ocasio, C. A.; McReynolds, A. C.; Nguyen, P.; Baxter, J. D.; Fletterick, R. J.; Webb, P.; Guy, R. K. A high-throughput screening method to identify small molecule inhibitors of thyroid hormone receptor coactivator binding. Sci STKE 2006, p 13.
NCGC Assay Protocol Summary:
For screening, 5 uL/well 0.6 uM TRb and 20 nM SRC2 Texas Red in protein buffer (20mM Tris hydrochloride, 100mM NaCl, 10% glycerol, 1mM EDTA, 0.01% NP-40, 1mM DTT, 1uM T3 and 5% DMSO) was dispensed into black solid 1536-well plates (Grenier) using a solenoid-based dispenser. Following transfer of 23 nL compound or DMSO vehicle by a pin tool, the plates were centrifuged 15 s at 1000 RPM and incubated 5 hr at ambient temperature. The plates were read by an Envision (Perkin Elmer) to detect fluorescence polarization of SRC2 Texas Red (555 nm excitation and 632 nm emission). Data were normalized to unbound (all components except TRb) and bound SRC2 Texas Red controls. Total fluorescence (TF) was calculated as follows: TF = S + 2P where S and P are fluorescence readings in the parallel and perpendicular channels, respectively.
Keywords: NIH Roadmap, MLPCN, MLI, MLSMR, qHTS, NCGC, qHTS, thyroid hormone receptor, steroid receptor coactivator, fluorescence polarization
On the % scale 0 is the no-effect control and ±100 the full control effect; potency means the concentration at half of the fitted maximal effect; tags describe the fitted curve by direction and shape or compound fluorescence and quenching.

Row | SMILES | Potency | fluorescence change, negative = quenching
1 | Cc1cc(O)c2c(c1)C(=O)c1cc(O)cc(O)c1C2=O | inactive | –
2 | CNC(=O)Oc1ccc2c(c1)[C@]1(C)CCN(C)[C@@H]1N2C | inactive | –
3 | Cc1cc2c(C(C)C)c(O)c(O)c(C=O)c2c(O)c1-c1c(C)cc2c(C(C)C)c(O)c(O)c(C=O)c2c1O | – | inactive: -19.9% [at 53 µM]
4 | C#C[C@@]1(O)CC[C@@H]2[C@@H]3CCC4=CC(=O)CC[C@@]4(C)[C@H]3CC[C@]21C | – | inactive: -5.63% [at 53 µM]
5 | CN1C(=O)CCS(=O)(=O)[C@@H]1c1ccc(Cl)cc1 | – | inactive: -3.38% [at 53 µM]
6 | CC[C@@]1(O)C(=O)OCc2c1cc1n(c2=O)-c2cc3ccccc3nc2C1 | inactive | –
7 | CN(C)[C@@H]1C(=O)C(C(N)=O)=C(O)[C@@]2(O)C(=O)C3=C(O)c4c(O)cccc4[C@@](C)(O)C3CC12 (some centres not stated) | – | inactive: -2.11%
8 | NCC(CC(=O)O)c1ccc(Cl)cc1 (configuration not stated) | inactive | –
9 | O=c1ccn([C@@H]2O[C@H](COP(=O)(O)OP(=O)(O)O)[C@@H](O)[C@H]2O)c(=O)[nH]1 | – | inactive: -1.1%
10 | Cc1ccc(N)c(N)c1 | – | inactive: -2.55%
11 | CC(=O)Nc1nnc(S(N)(=O)=O)s1 | inactive | –
12 | CC(C)NCC(O)COc1cccc2[nH]ccc12 (configuration not stated) | inactive | –
13 | O=C1NC(=O)C(=C/C=C/c2coc3ccc(Br)cc3c2=O)C(=O)N1 | active: 25.1 µM [fluorescent] | –
14 | Cc1ccccc1Cn1cnc2c(oc3ccccc32)c1=O | – | inactive: -1.6%
15 | CC[C@@H](CO)NC(=O)[C@@H]1C=C2c3cccc4c3c(cn4C)C[C@H]2N(C)C1 | inactive | –
16 | CC(C)C[C@H](NC(=O)[C@H](Cc1ccccc1)NC(=O)CNC(=O)CNC(=O)[C@@H](N)Cc1ccc(O)cc1)C(=O)N[C@@H](CCCN=C(N)N)C(=O)N[C@@H](CCCN=C(N)N)C(=O)N[C@@H](CCC(N)=O)C(=O)N[C@@H](Cc1ccccc1)C(=O)N[C@@H](CCCCN)C(=O)N[C@H](C(=O)N[C@H](C(=O)N[C@H](C(=O)O)[C@@H](C)O)C(C)C)C(C)C | – | inactive: 0.948%
17 | CCCN1CCC[C@@H]2Cc3n[nH]cc3C[C@H]21 | – | inactive: -3.27%
18 | Cc1cn([C@H]2C[C@H](O)[C@@H](CO)O2)c(=O)[nH]c1=O | inactive | –
19 | CO/C1=C\C(C)=C\[C@@H](C)[C@@H](O)[C@@H](C)C/C(C)=C/C=C\[C@H](OC)C([C@@H](C)[C@@H](O)[C@H](C)[C@@]2(O)C[C@@H](O)[C@H](C)C(C(C)C)O2)OC1=O (some centres not stated) | – | inactive: -7.11% [at 2.82 µM]
20 | COC[C@H](C)N(C(=O)CCl)c1c(C)csc1C | – | inactive: -3.95% [at 201 µM]
21 | CCN(CC)c1ccc(/C=C2/C(=O)NC(=O)N(Cc3ccco3)C2=O)cc1 | – | inactive: 26.6%
22 | CCCCC/C=C\C/C=C\C/C=C\C/C=C\CCCC(=O)OCCN | – | inactive: -0.644%
